From the supplement of paper PMC3334620
Over roughly 33,000 sequences, “E-score (-0.5 to 0.5)” has its median near -0.036; the highest 2% begin near 0.37. The list shows a part of the results.

Target: T1, Yer064c (UniProt P40041)
T1 sequence: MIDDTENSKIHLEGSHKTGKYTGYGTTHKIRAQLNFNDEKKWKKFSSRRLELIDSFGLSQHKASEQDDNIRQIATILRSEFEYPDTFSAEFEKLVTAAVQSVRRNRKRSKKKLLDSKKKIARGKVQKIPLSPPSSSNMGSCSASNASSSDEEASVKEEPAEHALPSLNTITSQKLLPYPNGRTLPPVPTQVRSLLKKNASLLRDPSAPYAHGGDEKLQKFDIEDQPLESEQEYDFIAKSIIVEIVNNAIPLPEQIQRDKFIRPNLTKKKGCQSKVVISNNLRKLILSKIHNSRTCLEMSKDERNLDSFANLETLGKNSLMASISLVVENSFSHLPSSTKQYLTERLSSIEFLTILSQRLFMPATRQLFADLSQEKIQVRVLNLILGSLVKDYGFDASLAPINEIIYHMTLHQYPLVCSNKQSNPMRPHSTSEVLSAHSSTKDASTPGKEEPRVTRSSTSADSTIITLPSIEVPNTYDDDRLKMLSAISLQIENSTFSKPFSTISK
Test: PBM E-score (8-mer binding enrichment) (E-score (-0.5 to 0.5)); higher = stronger / more preferred TF binding; most listed sequences are background and not binding sites
Details: protein concentration: 200 nM; construct: GST-full length
Experimental: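 Universal 'all 10-mer' protein binding microarrays (Agilent AMADID 015681) probed with GST-tagged S. cerevisiae TFs (full-length or DBD) made by in vitro transcription/translation (PURExpress), about 100-200 nM. Bound TF was detected with fluorescent anti-GST. Each ungapped 8-mer (which stands for itself and its reverse complement) is scored by the PBM enrichment score (E-score), a modified Wilcoxon-Mann-Whitney statistic from -0.5 to +0.5, computed with the Universal PBM Analysis Suite. Scale: above 0.35 generally sequence-specific binding.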

Going from CCTCTGTA to GACTAACA, the “PBM E-score” value rises from -0.108 to 0.449.

First: AAGTCGTG
Second: AGCAGACC
The “PBM E-score” value of the first is higher: 0.281 for the first, -0.0838 for the second.

Going from GGAGGGGA to GCCAACAA, the “PBM E-score” value rises from -0.203 to -0.116.

First: CCAGCAAG
Second: TGCGGTAA
The “PBM E-score” value of the first is lower: -0.109 for the first, 0.0977 for the second.

Compared with CACGGCCA, CCTATGCC is higher in “PBM E-score” value: -0.185 for the first, -0.151 for the second.

Going from CGGGGCAG to CCGACGAG, the “PBM E-score” value rises from -0.052 to 0.00632.

Going from CTTGAATC to CTGGAGGA, the “PBM E-score” value falls from 0.348 to -0.2.

Compared with GAGAACTA, CACCCAAG is lower in “PBM E-score” value: 0.0181 for the first, -0.107 for the second.

Going from TCATAGCA to CAAGATCC, the “PBM E-score” value falls from 0.262 to -0.0644.

Compared with TACCCCCA, AGCCTTAC is lower in “PBM E-score” value: -0.163 for the first, -0.217 for the second.

Compared with CGTGCTGA, AAACGACG is lower in “PBM E-score” value: 0.116 for the first, 0.0119 for the second.

Going from GCCGGGAA to AACCTAGG, the “PBM E-score” value rises from -0.314 to -0.249.

Going from GATCCTGA to CCGAGGGC, the “PBM E-score” value falls from -0.0226 to -0.0597.

Going from CAGCATCC to AAGCAGAG, the “PBM E-score” value rises from -0.195 to 0.0717.

Compared with ACTCCTGC, GCACTTTA is lower in “PBM E-score” value: 0.176 for the first, 0.041 for the second.

Compared with ACGCGACA, GCAGACCA is higher in “PBM E-score” value: -0.128 for the first, -0.0921 for the second.

Compared with ATCTCGGG, CATCTTAG is lower in “PBM E-score” value: 0.0757 for the first, 0.0471 for the second.

First: GTTTACCA
Second: ATCGATAG
The “PBM E-score” value of the first is higher: 0.148 for the first, 0.0388 for the second.

Going from ATGCCAAT to AGCGTCCC, the “PBM E-score” value falls from -0.122 to -0.314.

First: GAATAAAC
Second: ATCACCTC
The “PBM E-score” value of the first is lower: -0.0329 for the first, 0.113 for the second.

Going from GTAGGGGA to ACGCGACT, the “PBM E-score” value rises from -0.202 to 0.376.

Going from ACGAGGAA to GCGTGGTA, the “PBM E-score” value falls from -0.136 to -0.2.

Compared with CCGTCGCA, CAATACGG is lower in “PBM E-score” value: -0.182 for the first, -0.342 for the second.

Going from AGCAAGTG to CATTCGGG, the “PBM E-score” value falls from -0.0201 to -0.0821.

Compared with ATTGGAGG, AATTTATA is higher in “PBM E-score” value: -0.0627 for the first, 0.112 for the second.

Going from CATGAAGG to ACTAGCTC, the “PBM E-score” value rises from -0.0626 to 0.0817.

Going from CCGTCTCA to GCGCGTCA, the “PBM E-score” value falls from 0.0264 to -0.182.

Compared with GCATCCAA, ATGCGACC is higher in “PBM E-score” value: -0.209 for the first, -0.133 for the second.

Going from CGACTACC to ATGGTTAA, the “PBM E-score” value rises from 0.383 to 0.391.

Compared with CTTGTTAC, AAGGCCTT is lower in “PBM E-score” value: -0.00573 for the first, -0.275 for the second.

Going from AGGGTACG to ATCCTAGA, the “PBM E-score” value rises from -0.111 to 0.0286.

Going from ACAGTAGA to CAGTAGGG, the “PBM E-score” value falls from -0.0588 to -0.254.

Going from AGTGTGAC to ACGTCCCC, the “PBM E-score” value falls from 0.303 to -0.118.

First: ATAGTCGG
Second: GGCGCGGA
The “PBM E-score” value of the first is higher: 0.256 for the first, -0.248 for the second.

Compared with CAGTGCGA, CCGAAGCC is lower in “PBM E-score” value: -0.027 for the first, -0.256 for the second.

Compared with AGCTGATG, CCGGACTC is higher in “PBM E-score” value: -0.03 for the first, 0.327 for the second.

First: GCCCAACA
Second: AATTAGTC
The “PBM E-score” value of the first is lower: -0.253 for the first, 0.446 for the second.

Going from AATCCCCT to CAGTACAG, the “PBM E-score” value rises from -0.161 to 0.0776.

First: CAGGCTTC
Second: ACTGGTCA
The “PBM E-score” value of the first is lower: -0.252 for the first, 0.036 for the second.

Going from GATTATAA to AGCGGTAC, the “PBM E-score” value falls from 0.216 to -0.216.

Going from AAAGGATA to ATTGAGAG, the “PBM E-score” value rises from 0.0278 to 0.0906.

Going from AAGGGCAT to GTCTCAAC, the “PBM E-score” value rises from -0.0533 to 0.216.

Compared with AATCACAA, AGTCCGAT is lower in “PBM E-score” value: 0.362 for the first, 0.253 for the second.

First: CGGCTCAC
Second: AATGGAAA
The “PBM E-score” value of the first is higher: 0.0907 for the first, -0.17 for the second.

Going from CGCGAGCC to CCGGGGAA, the “PBM E-score” value falls from 0.0358 to -0.183.

First: GCAGAGAA
Second: GCCGGTCC
The “PBM E-score” value of the first is higher: 0.0496 for the first, -0.223 for the second.

Going from CCGCCGGA to GATTGTCC, the “PBM E-score” value rises from -0.102 to 0.0122.

Going from GCTCACGA to ATGCGTGA, the “PBM E-score” value rises from 0.121 to 0.223.

First: ATGCTGTC
Second: AACCAAGC
The “PBM E-score” value of the first is higher: 0.00336 for the first, -0.0715 for the second.

First: ACAGTTAC
Second: AACCACGC
The “PBM E-score” value of the first is lower: -0.0542 for the first, -0.021 for the second.

Going from ACAATATC to CGGTCGGA, the “PBM E-score” value falls from -0.0473 to -0.0918.

First: CTATGGTA
Second: GACCATAA
The “PBM E-score” value of the first is lower: 0.0675 for the first, 0.126 for the second.

First: AGTGCGTC
Second: CGCGTACA
The “PBM E-score” value of the first is lower: -0.262 for the first, -0.104 for the second.

Compared with TAAAGGAA, CGTAGACC is lower in “PBM E-score” value: -0.116 for the first, -0.202 for the second.

Going from AGCGTTCG to ATAGGGCG, the “PBM E-score” value falls from -0.0236 to -0.0626.

Compared with ATAAGCCA, ACAGGTGG is lower in “PBM E-score” value: -0.052 for the first, -0.12 for the second.

Compared with CGCCCACA, ATGCTACA is lower in “PBM E-score” value: -0.0939 for the first, -0.139 for the second.

First: AAGGTAGC
Second: CCTGCACG
The “PBM E-score” value of the first is lower: -0.239 for the first, -0.0255 for the second.

First: CGTAAGAA
Second: CTATTGAC
The “PBM E-score” value of the first is lower: -0.222 for the first, 0.22 for the second.

First: AGAGCTGC
Second: GATAATCC
The “PBM E-score” value of the first is lower: -0.279 for the first, -0.0741 for the second.

Going from AGTATAGC to AAGTCCCT, the “PBM E-score” value rises from -0.206 to -0.127.

Compared with GGAGAAGA, TCCCCTCA is higher in “PBM E-score” value: -0.193 for the first, 0.169 for the second.

Going from CTTTGCTA to CGCCGTAA, the “PBM E-score” value falls from -0.0667 to -0.287.

Going from GCGTTTAC to CTGCTCGA, the “PBM E-score” value rises from -0.206 to -0.128.

First: AAACTCGA
Second: AGGTCCAG
The “PBM E-score” value of the first is higher: 0.0424 for the first, -0.123 for the second.

First: CAGAAGAC
Second: CGCGTGCC
The “PBM E-score” value of the first is higher: 0.105 for the first, -0.108 for the second.

Compared with ACCATATG, TAGCCCCA is lower in “PBM E-score” value: 0.0653 for the first, -0.0191 for the second.

First: ACACATGG
Second: GTGAGGCA
The “PBM E-score” value of the first is higher: 0.0925 for the first, -0.122 for the second.

Compared with CTAAGGAA, CCCCCTCC is lower in “PBM E-score” value: 0.012 for the first, -0.28 for the second.

Going from ATGTGCCC to GAGAACGC, the “PBM E-score” value rises from -0.177 to -0.14.

Compared with CCTGAGTC, ATTTGGTG is lower in “PBM E-score” value: 0.461 for the first, -0.0429 for the second.

Compared with ATTCCGTA, ATCACCGG is higher in “PBM E-score” value: 0.0612 for the first, 0.24 for the second.

Going from ACCATGTA to GCTTAAAC, the “PBM E-score” value falls from 0.0651 to 0.06.

Going from CCGCATAG to CTCGCCAA, the “PBM E-score” value rises from -0.129 to -0.0752.

Compared with CATTACTC, AGGAGCAG is lower in “PBM E-score” value: 0.179 for the first, -0.286 for the second.

Going from AAACCATT to GTAATGAA, the “PBM E-score” value falls from 0.157 to 0.0372.

Compared with ACGCACCC, CTACGTTC is higher in “PBM E-score” value: -0.201 for the first, -0.111 for the second.

First: CTCTGTAC
Second: ATCAGAAT
The “PBM E-score” value of the first is lower: -0.146 for the first, 0.165 for the second.

Compared with GAACGCTC, AGCCCGCC is higher in “PBM E-score” value: -0.298 for the first, -0.231 for the second.

First: AGCAATCA
Second: ATATGACC
The “PBM E-score” value of the first is higher: 0.318 for the first, 0.0605 for the second.

First: CTTCATGA
Second: CAGCATGG
The “PBM E-score” value of the first is higher: 0.23 for the first, 0.00278 for the second.

First: GAAGCCCC
Second: GAAATACC
The “PBM E-score” value of the first is lower: -0.368 for the first, -0.158 for the second.

Going from AGGAGAGG to AGGCAGGG, the “PBM E-score” value rises from -0.324 to -0.162.

Compared with ATAGGAAT, CAGCGAGC is lower in “PBM E-score” value: 0.141 for the first, -0.15 for the second.

Compared with ACTAACGA, CGTCGTGA is lower in “PBM E-score” value: 0.315 for the first, 0.0738 for the second.

Compared with GCCCCGCC, CCTTCATA is higher in “PBM E-score” value: -0.164 for the first, -0.0285 for the second.
